From the supplement of paper PMC4604168 (melanoma cell lines)
The other results are listed elsewhere or left out. Most values come without repeats; read them as rough.

Columns and labels:
Assay in all cases: cell count relative to DMSO control; melanoma cells; higher = more viable cells
Conditions in all cases: library dose: low library concentration; 72 h
COLO792 = system: COLO792
COLO800 = system: COLO800
COLO829 = system: COLO829
G361 = system: G361
IPC-298 = system: IPC-298
IST-MEL1 = system: IST-MEL1
LB2518-MEL = system: LB2518-MEL
LOXIMVI = system: LOXIMVI
MEL-HO = system: MEL-HO
MZ2-MEL = system: MZ2-MEL
MeWo = system: MeWo
RPMI7951 = system: RPMI7951
RVH-421 = system: RVH-421
SkMel28 = system: SkMel28
SkMel2 = system: SkMel2
SkMel30 = system: SkMel30
SkMel5 = system: SkMel5
UACC257 = system: UACC257
UACC62 = system: UACC62
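Note: cell number obtained by counting DAPI-stained nuclei in high-throughput microscope images with image analysis software, screen run in 1,536-well plates.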

SMILES	cell count (COLO792)	cell count (COLO800)	cell count (COLO829)	cell count (G361)	cell count (IPC-298)	cell count (IST-MEL1)	cell count (LB2518-MEL)	cell count (LOXIMVI)	cell count (MEL-HO)	cell count (MZ2-MEL)	cell count (MeWo)	cell count (RPMI7951)	cell count (RVH-421)	cell count (SkMel28)	cell count (SkMel2)	cell count (SkMel30)	cell count (SkMel5)	cell count (UACC257)	cell count (UACC62)
O=c1[nH]nc(Sc2ncc([N+](=O)[O-])s2)n1-c1ccc2c(c1)OCCO2 + O=C(Nc1cccc(Cl)c1)Nc1ncc(CCNc2ncnc3ccsc23)s1 [SNS314] (first compound 0.2 µM, partner dose 0.0008 µM)	93.8%	103%	73.4%	102%	104%	97.1%	101%	82%	108%	120%	91.4%	106%	99.4%	101%	96.3%	111%	89.9%	71.5%	99.3%
COc1cc(Nc2ncc(F)c(Nc3ccc4c(n3)NC(=O)C(C)(C)O4)n2)cc(OC)c1OC [Tamatinib] + NC(=O)Nc1cc(-c2cccc(F)c2)sc1C(=O)N[C@H]1CCCNC1 [AZD7762] (first compound 0.4 µM, partner dose 0.02 µM)	64.6%	111%	101%	93.8%	91.6%	101%	92.9%	96.9%	93.1%	108%	91%	78.3%	116%	89.5%	97.5%	76.9%	97.9%	106%	90.8%
CC1(C)NC(=O)N(c2ccc([N+](=O)[O-])c(C(F)(F)F)c2)C1=O [nilutamide] + O=C(O)c1ccc(-c2c[nH]c3ncc(-c4ccccc4)cc23)cc1C1CCCC1 [GSK650394] (first compound 1 µM, partner dose 0.16 µM)	87.5%	104%	72%	97.8%	95.2%	90%	102%	64.9%	82.3%	96.3%	88.7%	95.3%	91.2%	88.2%	102%	96.9%	84.7%	91.6%	81.6%
O=C(Nc1cccc(Cl)c1)Nc1ncc(CCNc2ncnc3ccsc23)s1 + NCC(=O)Nc1ccc(-n2nc(C(F)(F)F)cc2-c2ccc3c(ccc4ccccc43)c2)cc1 [OSU03012] (first compound 0.0008 µM, partner dose 1 µM)	99.9%	66.5%	95.5%	98.4%	103%	89.8%	78.6%	85.7%	100%	102%	63.2%	117%	85.9%	73.9%	93.7%	69.3%	106%	102%	95.3%
Cn1cncc1[C@@](N)(c1ccc(Cl)cc1)c1ccc2c(c1)c(-c1cccc(Cl)c1)cc(=O)n2C [tipifarnib] + O=C(O)c1ccc(-c2c[nH]c3ncc(-c4ccccc4)cc23)cc1C1CCCC1 [GSK650394] (first compound 0.01 µM, partner dose 0.16 µM)	93.8%	113%	95.3%	93.6%	94.4%	94.5%	77.6%	141%	92.2%	101%	77.2%	72.4%	93.1%	86.6%	83%	102%	95.6%	63.1%	79.1%
O=C(Nc1cccc(Cl)c1)Nc1ncc(CCNc2ncnc3ccsc23)s1 + CN(NC(=O)CC(=O)NN(C)C(=S)c1ccccc1)C(=S)c1ccccc1 [STA4783] (first compound 0.0008 µM, partner dose 0.006 µM)	65.5%	38.9%	65.5%	83%	90.2%	76.5%		90.2%	88.5%		96.9%	95.3%	96.8%	80.1%		101%	78.3%	85.1%	90%
Cn1cncc1[C@@](N)(c1ccc(Cl)cc1)c1ccc2c(c1)c(-c1cccc(Cl)c1)cc(=O)n2C [tipifarnib] + NCC(=O)Nc1ccc(-n2nc(C(F)(F)F)cc2-c2ccc3c(ccc4ccccc43)c2)cc1 [OSU03012] (first compound 0.01 µM, partner dose 1 µM)	103%	102%	74.3%	2.11%	77.9%	77%	86%	90.5%	94%	102%	52.5%	93.9%	72.7%	79.1%	58.9%	59.7%	90%	74.9%	79.3%
O=c1[nH]nc(Sc2ncc([N+](=O)[O-])s2)n1-c1ccc2c(c1)OCCO2 + CC1(C)NC(=O)N(c2ccc([N+](=O)[O-])c(C(F)(F)F)c2)C1=O [nilutamide] (first compound 0.2 µM, partner dose 1 µM)	96.3%	71.2%	84%	98.4%	104%	109%	110%	112%	108%	108%	99.4%	108%	89.4%	120%	106%	110%	98.9%	120%	94%
O=c1[nH]nc(Sc2ncc([N+](=O)[O-])s2)n1-c1ccc2c(c1)OCCO2 + COc1ccc(-c2ccc3c(N4CCOCC4)nc(N4C[C@@H](C)O[C@@H](C)C4)nc3n2)cc1CO [KU0063794] (first compound 0.2 µM, partner dose 0.02 µM)	107%	76.7%	95.1%	103%	101%	105%	98.9%	120%	103%	88.5%	102%	106%	117%	103%	96.9%	88.2%	111%	89.4%	99.2%
O=c1[nH]nc(Sc2ncc([N+](=O)[O-])s2)n1-c1ccc2c(c1)OCCO2 + COc1cc2c(Oc3ccc4[nH]c(C)cc4c3F)ncnc2cc1OCCCN1CCCC1 [cediranib] (first compound 0.2 µM, partner dose 0.4 µM)	94.1%	109%	112%	87.6%	101%	103%	106%	107%	110%	102%	115%	96.1%	128%	106%	115%	89.2%	93%	78.6%	93.6%
O=c1[nH]nc(Sc2ncc([N+](=O)[O-])s2)n1-c1ccc2c(c1)OCCO2 + O=C(CCCCCCC(=O)Nc1ccccc1)NO [vorinostat] (first compound 0.2 µM, partner dose 0.08 µM)	113%	124%	99.1%	107%	109%	107%	100%	100%	104%	111%	100%	105%	86.9%	104%	113%	104%	99.7%	92.5%	83.1%
CC1(C)NC(=O)N(c2ccc([N+](=O)[O-])c(C(F)(F)F)c2)C1=O [nilutamide] + CO[C@@H]1[C@H](N(C)C(=O)c2ccccc2)C[C@H]2O[C@]1(C)n1c3ccccc3c3c4c(c5c6ccccc6n2c5c31)C(=O)NC4 [Midostaurin] (first compound 1 µM, partner dose 0.08 µM)	110%	106%	104%	92%	94.7%	97.8%		91.6%	100%		97.2%	114%	108%	94.1%	102%	106%	92.3%	85.5%	112%
C[C@@H]1CCN(C(=O)CC#N)C[C@@H]1N(C)c1ncnc2[nH]ccc12 + CN(NC(=O)CC(=O)NN(C)C(=S)c1ccccc1)C(=S)c1ccccc1 [STA4783] (first compound 1 µM, partner dose 0.006 µM)	65.2%	27.9%	63.7%	81.6%	100%	77.5%	61.5%	92%	78.4%	110%	91.5%	95.3%	93%	92.4%	83.7%	98.2%	107%	122%	101%
C[C@@H]1CCN(C(=O)CC#N)C[C@@H]1N(C)c1ncnc2[nH]ccc12 + O=C(O)c1ccc(-c2c[nH]c3ncc(-c4ccccc4)cc23)cc1C1CCCC1 [GSK650394] (first compound 1 µM, partner dose 0.16 µM)	91.2%	62.3%	107%	95.6%	103%	84.1%	103%	76.3%	88.3%	97.4%	94.1%	95.9%	68.4%	82.7%	95.9%	99%	98.6%	83.8%	101%
CC1(C)NC(=O)N(c2ccc([N+](=O)[O-])c(C(F)(F)F)c2)C1=O [nilutamide] + NCC(=O)Nc1ccc(-n2nc(C(F)(F)F)cc2-c2ccc3c(ccc4ccccc43)c2)cc1 [OSU03012] (first compound 1 µM, partner dose 1 µM)	101%	102%	85.4%	111%	80.7%	96.6%	116%	86.2%	94%	97.3%	50.9%	91%	102%	87.5%	70.7%	51.4%	95.2%	78.8%	87%
O=C(Nc1cccc(Cl)c1)Nc1ncc(CCNc2ncnc3ccsc23)s1 + O=C(O)c1ccc(-c2c[nH]c3ncc(-c4ccccc4)cc23)cc1C1CCCC1 [GSK650394] (first compound 0.0008 µM, partner dose 0.16 µM)	80%	101%	97.1%	90.8%	92.9%	84.8%		106%	86.2%		98.8%	90%	126%	85.2%		100%	86.3%	124%	92.8%
